# Article PMC4336329 (PLoS ONE, 2015)
# Screen size: about 310,000 compounds; about 2,200 (0.71%) showed an effect of 50% or more. The effect is printed as a negative number. Some of the results follow.
# Target: human ether-à-go-go-related gene (hERG) potassium channel (human, UniProt Q12809)
# Test: primary screen, population patch clamp on CHO cells stably expressing hERG
# Chain of human ether-à-go-go-related gene (hERG) potassium channel (Q12809 whole entry, looked up): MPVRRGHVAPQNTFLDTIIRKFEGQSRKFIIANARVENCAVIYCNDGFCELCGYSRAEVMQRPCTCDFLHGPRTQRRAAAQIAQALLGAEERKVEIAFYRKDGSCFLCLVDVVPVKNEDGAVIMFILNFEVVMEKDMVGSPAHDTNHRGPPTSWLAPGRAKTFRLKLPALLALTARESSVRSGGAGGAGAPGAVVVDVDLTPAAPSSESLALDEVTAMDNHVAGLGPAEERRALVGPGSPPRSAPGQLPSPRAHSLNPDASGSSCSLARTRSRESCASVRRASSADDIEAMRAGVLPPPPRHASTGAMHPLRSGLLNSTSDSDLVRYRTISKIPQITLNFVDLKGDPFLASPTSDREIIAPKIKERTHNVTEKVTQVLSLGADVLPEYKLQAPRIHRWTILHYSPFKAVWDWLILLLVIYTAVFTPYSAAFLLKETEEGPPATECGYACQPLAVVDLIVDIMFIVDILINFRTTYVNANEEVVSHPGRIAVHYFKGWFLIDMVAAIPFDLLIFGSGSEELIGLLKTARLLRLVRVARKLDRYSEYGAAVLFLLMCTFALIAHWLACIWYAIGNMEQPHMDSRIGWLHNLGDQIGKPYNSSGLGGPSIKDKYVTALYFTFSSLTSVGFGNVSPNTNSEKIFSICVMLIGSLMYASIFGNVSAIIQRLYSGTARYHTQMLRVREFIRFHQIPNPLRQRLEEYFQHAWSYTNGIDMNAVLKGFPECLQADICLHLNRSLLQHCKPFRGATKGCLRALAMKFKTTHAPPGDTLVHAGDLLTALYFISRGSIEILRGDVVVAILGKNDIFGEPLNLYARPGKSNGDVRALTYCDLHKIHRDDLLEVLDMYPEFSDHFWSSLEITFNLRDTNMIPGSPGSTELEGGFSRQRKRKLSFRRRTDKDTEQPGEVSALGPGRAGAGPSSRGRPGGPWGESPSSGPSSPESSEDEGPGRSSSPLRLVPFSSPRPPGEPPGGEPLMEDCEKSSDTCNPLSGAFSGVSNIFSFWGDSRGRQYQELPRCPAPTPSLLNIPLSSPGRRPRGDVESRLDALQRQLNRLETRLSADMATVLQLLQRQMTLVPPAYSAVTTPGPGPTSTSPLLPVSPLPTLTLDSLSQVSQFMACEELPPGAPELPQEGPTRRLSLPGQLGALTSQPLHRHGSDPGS
row,Compound,"hERG current change (%, negative = inhibition) at 1uM [%]"
1,Cc1c(NC(=O)c2cccc(NC(=O)Cc3ccc(Cl)cc3)c2)c(=O)n(-c2ccccc2)n1C,4.75
2,CCC1NC(=S)NC(C)=C1C(=O)c1ccccc1 (stereo not shown),3.52
3,COc1ccccc1CCC(=O)N1CCN(S(=O)(=O)c2cc(C(F)(F)F)ccc2Cl)CC1,10
4,CC(/C=C/c1ccccc1)=N/NC(=O)c1cc([N+](=O)[O-])cc([N+](=O)[O-])c1,11.6
5,CCN1CCN(Cc2ccc(NC(=O)Nc3ccc(SC)cc3)cc2)CC1,-8.4
6,CN(C)CCCNc1ccc(-c2nn(C)c(=O)c3ccccc23)cc1[N+](=O)[O-],12.4
7,Cc1ccc(-c2nc(C)sc2CC(=O)OCC(=O)Nc2c(F)cccc2F)cc1,4.8
8,O=C(Nc1ccc(F)cc1F)NC1CC1,12.9
9,COc1ccc(-c2nc3cnccn3c2Nc2ccc3c(c2)OCO3)cc1,-0.161
10,CCOC(=O)Nc1sc2c(c1C#N)CCCC2,10.6
11,Cc1cc(C)c2nc(N(CCN(C)C)C(=O)/C=C/c3cccs3)sc2c1.Cl,11.7
12,O=C(Nc1ccncc1)c1ccc(Br)cc1,11.4
13,Cc1cccc(-n2cnc3cc([N+](=O)[O-])ccc32)c1,-4.78
14,CCN(CC)S(=O)(=O)c1ccc(NCCc2ccccn2)nc1,16.7
15,COC(=O)CN(c1ccc2c(c1)OCCO2)S(=O)(=O)c1ccccc1,4.64
16,CC(C)C(=O)Nc1nnc(S(=O)(=O)N2CCCc3ccccc32)s1,9.79
17,CCCCn1nnnc1SCC(=O)N(CC)CC,16.8
18,CCOC(=O)c1c(NC(=O)CSc2nnc(-c3cccnc3)n2Cc2ccco2)sc(C)c1C,8.07
19,COc1ccc(CCNc2nc(-c3sc(N)nc3C)cs2)cc1OC,12.1
20,Fc1ccccc1Cc1noc(CN2CCN(c3ccc(Cl)cn3)CC2)n1,-5.24
21,NC(=O)NCCC1=CCCCC1,15.3
22,Cc1nn(CC#N)c(=O)n1-c1cccc(F)c1,13

row,Compound,"hERG current change (%, negative = inhibition) at 1uM [%]"
1,Cc1ccc(S(=O)(=O)N2CCN(C(=O)CSC3CCCC3)CC2)c(C)c1,9.54
2,Cc1cccc(-n2c(C)nc3cc(C(=O)N4CCC5(CC4)OCCO5)ccc32)c1,-14.2
3,Cc1cc(NC(=O)CCC(=O)N(Cc2ccco2)C2(C(=O)NC3CCCC3)CCCCC2)no1,10.5
4,O=C(COC(=O)c1ccc([N+](=O)[O-])s1)Nc1cccc(S(=O)(=O)NC2=NCCCCC2)c1,7.6
5,Cc1ccc2oc(-c3cccc(NC(=O)/C=C/c4cccc([N+](=O)[O-])c4)c3C)nc2c1,3.63
6,O=C(O)C1Cc2ccccc2CN1S(=O)(=O)c1ccc(Cl)cc1 (stereo not shown),6.87
7,Cc1ccc(C)c(N2CCN(S(=O)(=O)c3ccc(-c4cc(C)no4)s3)CC2)c1,18.3
8,O=C(NC1CCCCC1)C(c1ccncc1)N(C(=O)c1csnn1)c1ccccc1 (stereo not shown),9.07
9,CCCN1CCC(NC(=S)Nc2ccc(S(N)(=O)=O)cc2)CC1,12.5
10,COc1ccc(C(C2C(=O)CC(C)(C)CC2=O)C2C(=O)CC(C)(C)CC2=O)cc1CO,9.55
11,O=C(CNS(=O)(=O)c1cccs1)N1CCN(c2ccccn2)CC1,4.54
12,CCCCn1c(O)c(C(C)=NCCc2ccccc2)c(=O)[nH]c1=O,7.03
13,CCN(CC)S(=O)(=O)c1ccc(OC)c(NC(=O)C2CC(=O)N(c3ccc(C)cc3)C2)c1 (stereo not shown),-5.45
14,CN(C)CC/C=C1/c2cc(F)ccc2CSc2ccc(F)cc21,-2.43
15,Cc1ccc(NC(=O)COC(=O)CCc2c[nH]c3ccccc23)cc1[N+](=O)[O-],0.229
16,CCOc1ccc(C(=O)NC(=S)NC2CCCC2)cc1[N+](=O)[O-],14.2
17,CCN(CC)CC(=O)Nc1cc(N(C)C)nc2ccccc12.O=C(O)C(=O)O,6.57
18,CCCC(C)NC1=NCCCCC1 (stereo not shown),2.11
19,N=C1/C(=C/c2ccc(Br)o2)C(=O)N=C2SC(CC(=O)N3CCCC3)=NN12,12.1
20,COC(=O)c1c(NC(=O)C2C3C=CC(CC3)C2C(=O)O)sc(C)c1C (stereo not shown),4.01
21,CCN1CCN(c2cc(N3CCCC3)c([N+](=O)[O-])cc2F)CC1,1.15
22,O=C(NCCS(=O)(=O)N1CCCCC1)c1ccc2c(c1)OCO2,-1.82

row,Compound,"hERG current change (%, negative = inhibition) at 1uM [%]"
1,CCNC(=O)c1ccc(CSc2nc3ccccc3s2)cc1,11.4
2,CCCn1c(-c2ccccc2)cc(SC)c(C#N)c1=O,8.36
3,CC(C)=CCc1c(O)c(CC=C(C)C)c2occ(-c3ccc(O)cc3)c(=O)c2c1O,-2.28
4,COc1ccc(CCNS(=O)(=O)c2ccc3c(c2)OCCO3)cc1,5.36
5,COc1ccc(CNC(=O)CCC(=O)N2CCN(C(C)=O)CC2)cc1,9.58
6,O=C(c1cccs1)N1CCC(Cc2ccccc2)CC1,3.05
7,CCc1ccc2c(c1)C1(SC(NC(C)=O)=NN1C(C)=O)C(=O)N2CC (stereo not shown),9.82
8,COC(=O)c1ccc(Cn2nnc3c(=O)[nH]c(C4CCN(S(=O)(=O)c5cc(C)ccc5C)CC4)nc32)cc1,11.5
9,COc1ccc(C(C)(C)C)cc1NC(=O)CNc1cccc2ccccc12,5.71
10,O=C(COC(=O)c1ccc(Br)c(S(=O)(=O)N2CCOCC2)c1)NCC1CCCO1 (stereo not shown),1.85
11,Cc1cccc(Oc2nc(-c3ccncc3)nc3ccccc23)c1,8.12
12,O=C(Cn1cnc2c(nnn2Cc2ccccc2)c1=O)Nc1ccc2c(c1)OCCO2,-7.45
13,C=CCc1cc(OC)ccc1OCCN1CC(C)OC(C)C1.O=C(O)C(=O)O (stereo not shown),8.68
14,CCOC(=O)N1CCN(CCC(=O)c2ccc(Br)cc2)CC1.Cl,-23.1
15,O=C(Nc1ccc(-c2ccc3nncn3n2)cc1)C1CCCCC1,3.48
16,O=C(c1cccc(C(=O)N2CCc3ccccc32)n1)N1CCc2ccccc21,5.93
17,Cc1cc(C)nc(/N=C2\NC(=O)CC(C(=O)O)N2c2cccc(Cl)c2)n1 (stereo not shown),13.4
18,Cc1ccc(N2C(=O)C3CCCN3C2=S)cc1Cl (stereo not shown),3.78
19,CC1(C)C2CCC1(C)C(NC1=NCCC1)C2.Cl (stereo not shown),-2.04
20,Cc1noc(C)c1S(=O)(=O)N1CCC(C(=O)NCCCN2CC(C)CC(C)C2)CC1 (stereo not shown),12.2
21,CCN(c1ccc(OC)cc1)S(=O)(=O)c1nnc(NC(=O)c2ccc(C)cc2)s1,8.32
22,Cc1ccc(C(=O)N/C(=C\c2ccco2)C(=O)NCc2cccnc2)cc1,-36.2

row,Compound,"hERG current change (%, negative = inhibition) at 1uM [%]"
1,CCOc1ccc(N(CC(=O)Nc2ccc(CC)cc2)S(=O)(=O)c2c(C)[nH]c(=O)[nH]c2=O)cc1,12.6
2,COc1cc(CNC2CCCCC2OC)cc(OC)c1.O=C(O)C(=O)O (stereo not shown),10.6
3,CN(C(=O)COC(=O)c1cccc(F)c1)c1ccccc1,12
4,O=C(O)CCn1c(=O)n(CCC(=O)O)c(=O)n(CCC(=O)O)c1=O,14.3
5,CC(c1ccco1)N(C(=O)c1ccc(S(=O)(=O)N2CCCCC2)cc1)c1ccccn1 (stereo not shown),11.6
6,CC(CC(=O)Nc1ccc(-c2ccno2)cc1)n1cccn1 (stereo not shown),-2.93
7,Cc1c(Br)c([N+](=O)[O-])nn1CC(=O)NCCc1ccc(Cl)cc1,-1.75
8,Cc1sc2nc(SCC(N)=O)n(C)c(=O)c2c1C,13.9
9,CCCCn1c(N)c(N(CC(C)C)C(=O)CCCc2nc3ccccc3c(=O)[nH]2)c(=O)[nH]c1=O,15.4
10,Cc1cccnc1NC(=O)CN1C(=O)c2ccccc2S1(=O)=O,13
11,O=[N+]([O-])/C=C1/NCCN1Cc1ccc(Cl)nc1,7.91
12,COc1ccc(Cl)cc1C(=O)Nn1c(C)nc2ccccc2c1=O,15.8
13,Cc1ccsc1/C=C1\SC(N2CC(C)OC(C)C2)=NC1=O (stereo not shown),10.4
14,C=CCNC(=S)N1CCC(C(=O)c2ccc(Cl)cc2)CC1,1.47
15,Cc1cc(C)cc(C(=O)Nc2ccc(N3CCN(C(=O)c4ccco4)CC3)cc2)c1,13
16,CC(CNC(=O)C(C)C)NC(=O)C(C)C (stereo not shown),11.5
17,Cc1c(C(=O)N2CCCCCC2)c(S(=O)(=O)Nc2ccc(F)cc2)c(C)n1C,11.6
18,COc1ccc(C(C(=O)NC2CCCC2)N(Cc2cccnc2)C(=O)c2snc(C(N)=O)c2N)cc1 (stereo not shown),10.9
19,CC(=O)c1ccc(NC(=O)c2cnn3c(C(F)F)cc(C4CC4)nc23)cc1,14
20,O=C(NC1CCCCC1)c1ccc(S(=O)(=O)NCc2cccnc2)cc1,3.18
21,CC(CCN1CCN(c2ccc(F)cc2)CC1)c1ccccc1 (stereo not shown),-32.8
22,O=C1CCCN1c1ccc(C(=O)N(Cc2nnc(-c3ccc(Cl)cc3)o2)C2CC2)cc1,3.39
